# Test results reported in publication PMC4336329 (PLoS ONE, 2015).
# Hit rate of the full screen: of about 310,000 compounds, about 14,000 (4.5%) showed an effect of 50% or more. The effect is printed as a negative number. Some of the results follow.
# Biological target: human ether-à-go-go-related gene (hERG) potassium channel (human, UniProt Q12809)
# Assay: primary screen, population patch clamp on CHO cells stably expressing hERG
# 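Further: peak tail current of the secondary pulse compared with the same well before compound.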
# Sequence of human ether-à-go-go-related gene (hERG) potassium channel (Q12809 whole entry, looked up): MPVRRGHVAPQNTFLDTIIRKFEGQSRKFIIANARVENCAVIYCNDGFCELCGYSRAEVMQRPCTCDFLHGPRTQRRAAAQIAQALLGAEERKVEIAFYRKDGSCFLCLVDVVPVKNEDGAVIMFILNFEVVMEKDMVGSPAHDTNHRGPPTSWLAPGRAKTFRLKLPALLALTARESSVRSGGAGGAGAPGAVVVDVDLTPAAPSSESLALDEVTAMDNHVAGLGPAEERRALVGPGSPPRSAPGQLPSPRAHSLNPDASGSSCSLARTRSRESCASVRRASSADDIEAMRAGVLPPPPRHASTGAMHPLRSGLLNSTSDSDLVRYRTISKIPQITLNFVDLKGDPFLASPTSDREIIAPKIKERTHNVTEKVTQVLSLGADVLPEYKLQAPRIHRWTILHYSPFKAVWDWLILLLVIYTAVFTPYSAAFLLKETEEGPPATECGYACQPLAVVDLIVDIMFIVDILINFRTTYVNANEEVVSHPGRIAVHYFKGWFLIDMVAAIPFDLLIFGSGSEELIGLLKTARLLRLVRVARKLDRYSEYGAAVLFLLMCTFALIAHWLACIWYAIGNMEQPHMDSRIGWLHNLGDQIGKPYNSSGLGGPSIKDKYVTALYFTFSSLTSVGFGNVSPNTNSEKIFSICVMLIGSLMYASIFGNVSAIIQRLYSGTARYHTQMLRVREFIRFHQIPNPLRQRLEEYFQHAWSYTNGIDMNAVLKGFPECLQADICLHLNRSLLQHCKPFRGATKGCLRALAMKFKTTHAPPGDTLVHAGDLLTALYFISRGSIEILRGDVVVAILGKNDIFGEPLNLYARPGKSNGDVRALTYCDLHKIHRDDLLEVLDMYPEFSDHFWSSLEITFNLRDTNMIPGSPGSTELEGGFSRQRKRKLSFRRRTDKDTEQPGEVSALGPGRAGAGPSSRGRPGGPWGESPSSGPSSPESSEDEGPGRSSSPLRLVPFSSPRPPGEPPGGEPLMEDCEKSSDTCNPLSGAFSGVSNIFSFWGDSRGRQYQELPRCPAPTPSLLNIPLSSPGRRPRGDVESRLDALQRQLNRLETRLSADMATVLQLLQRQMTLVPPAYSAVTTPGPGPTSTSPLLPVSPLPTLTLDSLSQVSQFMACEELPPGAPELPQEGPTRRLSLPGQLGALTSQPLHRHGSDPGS
row,SMILES,"hERG current change (%, negative = inhibition) at 10uM [%]"
1,Cl.c1ccc2c(c1)oc1c(NCC3CCCO3)ncnc12 (centres unmarked),-6.22
2,O=C(CNC(=O)c1ccco1)NCC(=O)OCc1ccc(F)cc1,13.6
3,C/C(=C\c1ccccc1)C1NC(=O)c2c(sc3c2CCCC3)N1 (centres unmarked),7.46
4,COc1cc(/C=C(\C#N)c2nc3ccccc3[nH]2)ccc1OC(=O)c1ccco1,0.943
5,COc1cccc(CNC(=O)CN2C(=O)COc3ccc(S(=O)(=O)N4CCOCC4)cc32)c1,1.23
6,CCN1CCN(C(=O)C2CCN(c3nnc(-n4c(C)ccc4C)s3)CC2)CC1,-13
7,CCC(C)NC(=O)CSC1=Nc2ccccc2C2=NC(CC(=O)NCc3ccccc3)C(=O)N12 (centres unmarked),-0.668
8,O=C(NC1CCCC1)C1=COCCO1,5.2
9,CCC(COC)NC(=O)CCc1nnc(Cc2c[nH]c3ccccc23)o1 (centres unmarked),29.4
10,c1ccc(N(c2ccccc2)c2nc(N3CCCC3)nc(-n3ccnc3)n2)cc1,-6.6
11,O=C(CSc1nnc(-c2ccncc2)n1CC1CCCO1)Nc1cccc(O)c1 (centres unmarked),2.38
12,CC1=NN(c2nc(-c3ccc(Cl)cc3)cs2)C(=O)C1,13.8
13,O=C(Nc1nnc(SCc2ccccc2)s1)c1ccco1,3.26
14,Cc1ccc(S(=O)(=O)/N=C(/Nc2ccc3[nH]c(=O)[nH]c3c2)c2ccccc2)cc1,7.3
15,COc1ccc(-c2cn3ccccc3n2)cc1,11.9
16,O=C(O)CCCc1nc(-c2ccccc2)no1,-2.35
17,Cc1cc([N+](=O)[O-])cc(C)c1OCC(=O)N/N=C/c1ccc(OC(=O)c2ccccc2)cc1,-2.89
18,COc1cc2c(cc1OC)C(C)N(C(=O)Cc1ccc(C(F)(F)F)cc1)CC2 (centres unmarked),-21.8
19,NC(=O)CSc1nc(-c2ccccc2Cl)ns1,-3.02
20,CC(/C=N/NC(=O)c1nnn(-c2nonc2N)c1CN(C)C)=C\c1ccco1,-44.1
21,c1ccc(CN2CCN(c3ncnc4c3[nH]c3ccccc34)CC2)cc1,-62.5
22,CN(C)c1ccc(NC(=O)CSc2nc3ccccc3c(=O)n2C2CCCCC2)cc1,-20.8

row,SMILES,"hERG current change (%, negative = inhibition) at 10uM [%]"
1,CC(=O)N1CCCc2cc(S(=O)(=O)N3CCCC(C(=O)Nc4cccc(C)c4)C3)ccc21 (centres unmarked),-10.4
2,COc1ccccc1N(CC(=O)NCc1ccccc1)C(=O)CCC(=O)Nc1nccs1,14.5
3,O=C(O)c1cc(N=Nc2ccc(S(=O)(=O)Nc3ccccn3)cc2)ccc1O,7.91
4,CSc1sc(C(=O)NC(=O)NCc2cccnc2)c(C)c1-c1ccon1,-7.84
5,Cc1ccccc1C(=O)NC(=S)Nc1cccc(NC(=O)C(C)C)c1,-10.8
6,c1cc(-c2noc(CC3CCCCC3)n2)ccn1,-5.51
7,COc1ccc(C(=O)CN(C(=O)c2ccc(Cl)cc2)N2C(=O)C3CCCCC3C2=O)cc1 (centres unmarked),-6.63
8,COc1ccc(C2NN=C(c3ccc(C)cc3)S2)cc1OC (centres unmarked),12.8
9,O=C(C1CC(=O)N(c2ccc3c(c2)OCCO3)C1)N1CCN(Cc2ccccc2F)CC1 (centres unmarked),-9.81
10,COc1ccc(C(=O)c2ccc([N+](=O)[O-])cc2Cl)cc1,-16.2
11,CN(CC(=O)Nc1ccc(N2CCOCC2)cc1)C(=O)c1cc(S(=O)(=O)N(C)C)ccc1Cl,23
12,Cc1ccsc1/C=N/NC(=O)c1ccco1,11.1
13,CCCNS(=O)(=O)c1ccc(CCC(=O)NCCc2ccc(OC)c(OC)c2)cc1,4.46
14,O=C(c1cc(-c2ccc(Cl)c(Cl)c2)on1)N1CCOCC1,-14.1
15,CCCCCCC(=O)Nc1nc(C)c(-c2csc(Nc3ccc(Cl)cc3)n2)s1,12.3
16,CCN1C(=O)CC(NCc2ccc(S(N)(=O)=O)cc2)C1=O (centres unmarked),22.4
17,Cc1ccc(NC(=O)CO/N=C/c2ccccc2C)c(C)c1,-4.99
18,Cc1cc(NC(=O)COn2nnc3ccc(Cl)cc32)no1,4.41
19,CCc1cccc(Nc2cnn(C34C[C@@H]5C[C@@H](CC(CC(=O)O)(C5)C3)C4)c(=O)c2Cl)c1,19.1
20,CC(=O)N1CCN(C(=O)CC2OC(=O)c3ccccc32)CC1 (centres unmarked),5.88
21,C=CCOc1ccc(C2/C(=C(/O)c3ccc(OC)cc3)C(=O)C(=O)N2CCN2CCNCC2)cc1 (centres unmarked),9.52
22,COC(=O)CNC(c1ccccc1)c1cc(C)ccc1NC(=O)c1cccc(Cl)c1 (centres unmarked),-15.4

row,SMILES,"hERG current change (%, negative = inhibition) at 10uM [%]"
1,O=C(Cc1cccs1)N1CCN(S(=O)(=O)c2ccc(F)cc2)CC1,-2.76
2,CCCOc1ccc(N2C(=O)CC(N3CCN(CCN=CC4=C(O)CC(C)(C)CC4=O)CC3)C2=O)cc1 (centres unmarked),-13.2
3,O=C1Nc2ccccc2C1(O)c1ccccc1 (centres unmarked),12.5
4,CCOc1ccccc1NC(=O)NC1(C(=O)N2CCN3CCCC3C2)CCCCC1 (centres unmarked),6.9
5,CC(=O)c1cccc(NC(=S)NNC(=O)c2ccc(C)c([N+](=O)[O-])c2)c1,23.8
6,O=C1NC(=O)/C(=C\c2ccc(OCc3cccc([N+](=O)[O-])c3)cc2)N1,11.9
7,Cc1ccc(-c2nnn(CC(=O)N3c4ccccc4CCc4ccccc43)n2)cc1,6.13
8,Cc1ccc(CNC(=O)COc2ccc(S(=O)(=O)NC(C)C)cc2)cc1,10.5
9,N#Cc1cccc(C(=O)OCC(=O)NCc2ccco2)c1,5.89
10,COc1ccc(OC)c(NC(=O)CSc2ncccc2C(=O)O)c1,18.2
11,COc1ccc(S(=O)(=O)N2CCC(C(=O)NCCN3CCOCC3)CC2)cc1C,5.02
12,COc1cccc(/C=N/Nc2ccccc2C(=O)O)c1O,13
13,CCC(C)(C)c1ccc(O)cc1,6.62
14,CC(C)(C)c1ccc(C(=O)Nc2cnccn2)cc1,-31.7
15,CC(C)(C)NC(=O)Cn1c(SCC(=O)NCc2cccs2)nc2ccccc21,6.18
16,O=C(CN1C(=O)c2cccc3cccc(c23)C1=O)N1CCN(Cc2ccc3c(c2)OCO3)CC1,-41.3
17,Cc1cccc(NC(=O)c2ccc(N3CCCCC3)c([N+](=O)[O-])c2)n1,-2.96
18,CC(C)CCc1noc(CN(CC2CCC2)CC2CCCO2)n1 (centres unmarked),1.05
19,CCOC(=O)c1c(-c2ccccc2)oc2ccc(OC)cc12,1.46
20,COc1cccc(NC(=O)CN(C)C(=O)CN2C(=O)NC(C)(c3ccc(C)cc3)C2=O)c1 (centres unmarked),4.25
21,CC(C)(C)NC(=O)C(c1ccco1)N(C(=O)Cn1nnc(-c2ccc(F)cc2)n1)c1ccccc1 (centres unmarked),-17.5
22,CN1CCN(C(=O)c2ccc3c(=O)n4c(nc3c2)CCCCC4)CC1,-0.383

row,SMILES,"hERG current change (%, negative = inhibition) at 10uM [%]"
1,CCOc1cc(C)ccc1OCc1nnc(SCC(=O)Nc2cccc(C(=O)O)c2)n1-c1ccccc1,19.9
2,CN1c2ccccc2N(C)C1c1c(O)ccc2ccccc12,-0.366
3,CCOC(=O)Cc1csc(NC(=O)c2ccc3c(c2)OCO3)n1,-22.8
4,COc1ccc(OC)c(N=c2oc3cc(O)ccc3cc2C(N)=O)c1,3.97
5,CCc1noc(C)c1C(=O)OCC(=O)Nc1nc(-c2ccc(F)c(F)c2)cs1,-1.03
6,COc1ccc(OC)c(CNC(=O)C2CCN(C(=O)N(C)C)CC2)c1,7.09
7,CC(C)(C)c1nnc(NC(=O)CN2C(=O)C3C4C=CC(C4)C3C2=O)s1 (centres unmarked),4.72
8,CCN1CCN(CC(=O)NC2CCCCC2)C(=O)C1=O,1.65
9,CCCCSc1nnc(-c2ccc(OC)cc2)n1C,-20
10,CCOc1cc(CNCc2ccc(C(=O)O)cc2)ccc1OC.Cl,5.34
11,O=C(Cc1cccc2ccccc12)N/N=C/c1ccc(Sc2nc3ccccc3s2)o1,14.4
12,COc1ccc(C(O)Cc2nc3ccccc3n2C)cc1OC (centres unmarked),20.7
13,CN(C)S(=O)(=O)c1ccc(Cl)c(NC(=O)CN2C(=O)NC(C)(C3CC3)C2=O)c1 (centres unmarked),-9.33
14,Cl.FC(F)(F)c1cc(CO[C@@H]2CCCN[C@@H]2c2ccccc2)cc(C(F)(F)F)c1,-27.4
15,CC(C)(C)OC(=O)N1CCC[C@H]1C(=O)OCC(=O)Nc1cc(S(C)(=O)=O)ccc1Cl,-16.1
16,CCOC(=O)C1=C(C)N(CCCC(=O)O)C(=O)NC1c1ccccc1OS(=O)(=O)c1ccc([N+](=O)[O-])cc1 (centres unmarked),17.8
17,Cc1ccc(NC(=O)NC2CCN(CC(=O)Nc3nccs3)CC2)cc1,-6.52
18,Cc1ccc(Cl)c(OCC(=O)Nc2ccc(S(=O)(=O)NC3=NCCCCC3)cc2)c1,37.4
19,O=C(CCCCCCN1C(=O)c2ccccc2C1=O)Nc1nccs1,12.2
20,CCCN(CC1CC1)C(=S)NC(=O)c1ccccc1Br,-4.58
